Data reported in PubChem BioAssay (Tox21).
Values joined by “and” are separate entries in the source; they are usually repeats but may differ in a detail not shown here. Identical values can stand only once. The inconclusive results got no clear call from the source; some entries with a clear call stand among them for comparison. For some assays here: Where the call is inconclusive, the potency comes from a doubtful curve fit. Active and inactive are the calls of the source. Unless noted, the call rests on the fitted dose curve; in most records, active means well fitted curve in the direction sought with a large enough effect in the repeat runs; inconclusive means weak or mixed curves; inactive means no such curve, though single readings can be large; an effect the other way counts as inactive or inconclusive.

Tests used:
[1] = target: Estrogen receptor (Homo sapiens) (UniProt P03372); assay: qHTS assay to identify small molecule agonists of the estrogen receptor alpha (ER-alpha) signaling pathway using the BG1 cell line (AID 743079); details: BG1Luc4E2 cells, ERE-luciferase agonist, 22 h; further: nearly all actives have a fitted effect of over 20% in size; further: potency means the concentration at half of the fitted maximal effect; on activation: on the % scale 0 is the no-effect control and ±100 the full control effect
[2] = A CellTox Green Cytotoxicity Assay to monitor cytotoxicity in HEK293 cells - 40 hour (AID 1224871); further: nearly all actives have a fitted effect of over 45% in size; further: potency means the concentration at half of the fitted maximal effect
Outline: (§1)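 Cytotoxicity was tracked continuously in HEK293 cells by a DNA-binding dye excluded from viable cells. Compounds were transferred in DMSO 5 h after seeding; fluorescence was recorded at intervals up to 40 h.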

[3] = qHTS assay to identify small molecule antagonists of the estrogen receptor alpha (ER-alpha) signaling pathway using the BG1 cell line - cell viability counter screen (AID 743081); details: BG1Luc4E2 viability, CellTiter-Fluor, 22 h; activity change, negative = cytotoxicity: at 70.3 µM (top of the series);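 further: compound given together with 17beta-estradiol as the ER stimulus; nearly all actives have a fitted effect of over 45% in size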; further: potency means the concentration at half of the fitted maximal effect; on activity change, negative = cytotoxicity: on the % scale 0 is the no-effect control and ±100 the full control effect
[4] = A CellTox Green Cytotoxicity Assay to monitor cytotoxicity in HepG2 cells - 24 hour (AID 1224878); further: on the % scale 0 is the no-effect control and ±100 the full control effect; nearly all actives have a fitted effect of over 45% in size
Outline: (§2)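 Real-time, homogeneous cytotoxicity readout: dead-cell DNA staining by CellTox Green in HepG2 monolayers, fluorescence measured at timed intervals up to 40 h of continuous compound exposure.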

[5] = qHTS assay to identify small molecule agonists of H2AX (AID 1224845; active means well fitted activation curve with a large enough effect in the signal ratio in the repeat runs, not every such curve was filed as active; inconclusive means weak or mixed curves; the % refers to the signal ratio; further: on the % scale 0 is the no-effect control and ±100 the full control effect); details: CHO-K1 phospho-H2AX Ser139 HTRF, 3 h; activation (H2AX phosphorylation): at 154 µM (top of the series) unless noted
Outline: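 Wild-type CHO-K1 cells, plated overnight, exposed 3hr at 37C to 15 concentrations (0.76% DMSO final). Lysed, then HTRF anti-pH2AX (S139) cryptate and anti-H2AX-d2 antibodies, 24 hr room temperature; 665/620 nm emission read.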

[6] = qHTS RealTime-Glo MT Cell Viability Assay in HEK293 cells - 8 hour (AID 1224887); further: nearly all actives have a fitted effect of over 50% in size; further: potency means the concentration at half of the fitted maximal effect; on activity change, negative = cytotoxicity: top concentration of the series differs between compounds; on the % scale 0 is the no-effect control and ±100 the full control effect
Outline: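 Nonlytic bioluminescent viability monitoring. HEK293 at 600 cells/well with reagent; 5 h settle; compound transfer by pintool; plates held at 37 C and read at set time points.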

[7] = A CellTox Green Cytotoxicity Assay to monitor cytotoxicity in HEK293 cells - 32 hour (AID 1224881); further: potency means the concentration at half of the fitted maximal effect; nearly all actives have a fitted effect of over 40% in size
Outline: as §1

[8] = A CellTox Green Cytotoxicity Assay to monitor cytotoxicity in HEK293 cells - 8 hour (AID 1224884); further: nearly all actives have a fitted effect of over 35% in size; further: potency means the concentration at half of the fitted maximal effect
Outline: as §1

[9] = target: Progesterone receptor (Homo sapiens) (UniProt P06401); assay: qHTS assay to identify small molecule agonists of the progesterone receptor (PR) signaling pathway (AID 1346784; calls by dose curve; further: on the % scale 0 is the no-effect control and ±100 the full control effect; nearly all actives have a fitted effect of over 30% in size); details: PR-UAS-bla HEK293T, beta-lactamase FRET ratio, 16 h; activation: at 92.4 µM (top of the series) unless noted
Outline: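 Reporter assay, GripTite PR-UAS-bla HEK 293T cells: 16 hr exposure to DMSO-dissolved compounds at 37C, 5% CO2, in steroid-depleted (2% charcoal-stripped FBS) medium; beta-lactamase measured by FRET fluorescence.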

[10] = target: Acetylcholinesterase (Homo sapiens) (UniProt P22303); assay: Acetylcholinesterase (AChE) small molecule antagonists: fluorescence cell-based qHTS assay (AID 1347398; calls by dose curve; further: nearly all actives have a fitted effect of over 50% in size; further: potency means the concentration at half of the fitted maximal effect); details: Potency: AChE activity
Outline: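 Endogenous acetylcholinesterase of SH-SY5Y neuroblastoma cells is measured in situ. After overnight attachment and 30 min compound exposure, cells receive acetylthiocholine and Thiolite Green; fluorescence is read after 40 min at room temperature.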

[11] = qHTS assay to identify small molecule antagonists of the estrogen related receptor (ERR) signaling pathway from Tox21 library - cell viability counter screen (AID 1224834); further: nearly all actives have a fitted effect of over 30% in size; further: potency means the concentration at half of the fitted maximal effect
Outline: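 Cytotoxicity of test substances is gauged in the same ERR cells used for the antagonist screen, after 17.5 h of compound treatment at 37 C, by CellTiter-Fluor fluorescence measured after 30 min.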

[12] = target: Luciferin 4-monooxygenase (Photinus pyralis) (UniProt P08659); assay: qHTS assay to identify small molecule inhibitors of firefly luciferase (AID 1224835); further: nearly all actives have a fitted effect of over 25% in size; further: potency means the concentration at half of the fitted maximal effect
Outline: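 Biochemical qHTS: compounds run as interplate titrations against purified firefly enzyme, with D-luciferin and ATP each at its KM concentration. Light output recorded by CCD imaging.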

[13] = A CellTox Green Cytotoxicity Assay to monitor cytotoxicity in HepG2 cells - 40 hour (AID 1224879); further: nearly all actives have a fitted effect of over 40% in size; further: potency means the concentration at half of the fitted maximal effect
Outline: as §2

[14] = target: Voltage-gated inwardly rectifying potassium channel KCNH2 (Homo sapiens) (UniProt Q12809); assay: Human Ether-a-go-go-Related Gene (hERG) channel small molecule antagonists: fluorescence cell-based qHTS assay (AID 1671200); further: nearly all actives have a fitted effect of over 50% in size; further: potency means the concentration at half of the fitted maximal effect
Outline: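 In this thallium-flux screen, overnight-cultured U2OS cells bearing the channel are dye-loaded in darkness for an hour, rested 10 min at room temperature, and then monitored kinetically at 480/540 nm for two minutes post-stimulus.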

[15] = A CellTox Green Cytotoxicity Assay to monitor cytotoxicity in HepG2 cells - 16 hour (AID 1224876); further: nearly all actives have a fitted effect of over 45% in size; further: potency means the concentration at half of the fitted maximal effect
Outline: as §2

[16] = target: Cytochrome P450 3A4 (Homo sapiens) (UniProt P08684); assay: Cytochrome P450 Family 3 Subfamily A Member 4 (CYP3A4) small molecule antagonists: luciferase reporter qHTS assay (AID 1671201); further: nearly all actives have a fitted effect of over 50% in size; further: potency means the concentration at half of the fitted maximal effect
Outline: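 CYP3A4 activity was followed with a P450-Glo proluciferin substrate. Test compounds in DMSO were preincubated 10 min; NADPH regeneration then ran 1 h, and light output was read 20 min after detection reagent.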

[17] = A CellTox Green Cytotoxicity Assay to monitor cytotoxicity in HepG2 cells - 32 hour (AID 1224883); further: nearly all actives have a fitted effect of over 50% in size; further: potency means the concentration at half of the fitted maximal effect
Outline: as §2

[18] = target: Acetylcholinesterase (Homo sapiens) (UniProt P22303); assay: Acetylcholinesterase (AChE) small molecule antagonists: colormetric cell-based qHTS assay (AID 1347395; calls by dose curve; further: nearly all actives have a fitted effect of over 30% in size; further: potency means the concentration at half of the fitted maximal effect)
Outline: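 After overnight attachment at 37 C, SH-SY5Y cells get 30 min compound exposure; detection cocktail (acetylthiocholine, DTNB) then incubates 90 min at 37 C, and absorbance reflects AChE-generated thiocholine.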

[19] = qHTS assay to identify small molecule antagonists of the retinoid acid receptor (RAR) signaling pathway - cell viability counter screen (AID 1159551); further: on the % scale 0 is the no-effect control and ±100 the full control effect; nearly all actives have a fitted effect of over 35% in size
Outline: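 Cytotoxicity counter screen in C3RL4 cells: 6 h compound exposure with 1 uM retinol (final), viability from cellular ATP by luminescence.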

[20] = qHTS assay to identify small molecule antagonists of the thyroid receptor (TR) signaling pathway (AID 743065); further: on the % scale 0 is the no-effect control and ±100 the full control effect; nearly all actives have a fitted effect of over 55% in size
Outline: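 GH3.TRE-Luc rat pituitary cells (two TREs driving luciferase) were dosed with compound, then stimulated with 1 nM T3 (final) for 23.5 h at 37 C. ONE-Glo luminescence was the read-out, with CellTiter-Fluor fluorescence as the cytotoxicity counter-screen.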

[21] = activation: at 70.3 µM (top of the series) unless noted
Tags describe the fitted curve by direction and shape.

Chain of UniProt P03372 (P03372 whole entry, looked up): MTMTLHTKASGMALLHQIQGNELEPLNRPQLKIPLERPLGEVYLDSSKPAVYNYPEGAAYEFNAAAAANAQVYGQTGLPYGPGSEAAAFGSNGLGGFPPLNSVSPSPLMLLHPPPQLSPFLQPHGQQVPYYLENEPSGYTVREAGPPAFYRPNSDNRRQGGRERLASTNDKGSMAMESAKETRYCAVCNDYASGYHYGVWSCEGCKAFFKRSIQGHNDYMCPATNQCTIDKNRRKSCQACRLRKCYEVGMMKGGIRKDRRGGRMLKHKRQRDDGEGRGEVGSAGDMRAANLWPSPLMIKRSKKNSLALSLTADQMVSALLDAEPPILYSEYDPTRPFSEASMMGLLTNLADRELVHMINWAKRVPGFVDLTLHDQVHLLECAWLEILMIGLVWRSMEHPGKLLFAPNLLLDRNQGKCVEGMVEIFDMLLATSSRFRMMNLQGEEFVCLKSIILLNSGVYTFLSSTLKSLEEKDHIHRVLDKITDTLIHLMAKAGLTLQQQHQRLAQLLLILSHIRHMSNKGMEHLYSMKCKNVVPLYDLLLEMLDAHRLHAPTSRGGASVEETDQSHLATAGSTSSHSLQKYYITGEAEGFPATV
Chain of UniProt Q12809 (Q12809 whole entry, looked up): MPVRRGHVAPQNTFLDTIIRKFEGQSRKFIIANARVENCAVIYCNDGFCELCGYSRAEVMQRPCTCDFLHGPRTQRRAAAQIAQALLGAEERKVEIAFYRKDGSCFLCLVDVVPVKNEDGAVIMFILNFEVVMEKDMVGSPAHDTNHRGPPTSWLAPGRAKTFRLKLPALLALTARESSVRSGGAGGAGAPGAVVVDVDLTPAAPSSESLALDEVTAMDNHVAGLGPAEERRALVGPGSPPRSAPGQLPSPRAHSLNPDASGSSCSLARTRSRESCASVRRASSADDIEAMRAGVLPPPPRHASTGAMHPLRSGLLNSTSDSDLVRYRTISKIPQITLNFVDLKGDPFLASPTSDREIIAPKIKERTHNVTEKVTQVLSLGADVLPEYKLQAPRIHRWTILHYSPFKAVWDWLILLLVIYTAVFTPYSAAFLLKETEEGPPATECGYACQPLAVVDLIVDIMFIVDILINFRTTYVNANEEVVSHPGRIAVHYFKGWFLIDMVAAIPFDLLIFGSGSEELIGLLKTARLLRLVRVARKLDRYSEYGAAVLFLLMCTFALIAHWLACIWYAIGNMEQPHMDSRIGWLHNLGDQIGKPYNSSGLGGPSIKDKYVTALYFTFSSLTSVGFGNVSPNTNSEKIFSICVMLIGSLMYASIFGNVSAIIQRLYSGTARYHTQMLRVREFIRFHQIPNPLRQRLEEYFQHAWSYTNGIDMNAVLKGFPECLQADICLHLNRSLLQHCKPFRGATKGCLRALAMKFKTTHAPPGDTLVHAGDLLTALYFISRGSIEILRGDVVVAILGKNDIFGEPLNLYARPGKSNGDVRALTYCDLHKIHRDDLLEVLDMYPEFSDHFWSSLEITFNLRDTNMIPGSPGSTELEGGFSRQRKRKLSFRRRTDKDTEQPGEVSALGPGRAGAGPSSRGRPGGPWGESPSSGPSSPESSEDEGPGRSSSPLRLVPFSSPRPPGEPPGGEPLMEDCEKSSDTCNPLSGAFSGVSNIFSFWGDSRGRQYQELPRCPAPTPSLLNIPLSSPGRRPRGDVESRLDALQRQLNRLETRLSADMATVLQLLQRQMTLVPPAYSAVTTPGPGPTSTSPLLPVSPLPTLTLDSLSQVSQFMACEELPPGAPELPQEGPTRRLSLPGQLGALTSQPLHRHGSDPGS
Chain of UniProt P06401 (P06401 whole entry, looked up): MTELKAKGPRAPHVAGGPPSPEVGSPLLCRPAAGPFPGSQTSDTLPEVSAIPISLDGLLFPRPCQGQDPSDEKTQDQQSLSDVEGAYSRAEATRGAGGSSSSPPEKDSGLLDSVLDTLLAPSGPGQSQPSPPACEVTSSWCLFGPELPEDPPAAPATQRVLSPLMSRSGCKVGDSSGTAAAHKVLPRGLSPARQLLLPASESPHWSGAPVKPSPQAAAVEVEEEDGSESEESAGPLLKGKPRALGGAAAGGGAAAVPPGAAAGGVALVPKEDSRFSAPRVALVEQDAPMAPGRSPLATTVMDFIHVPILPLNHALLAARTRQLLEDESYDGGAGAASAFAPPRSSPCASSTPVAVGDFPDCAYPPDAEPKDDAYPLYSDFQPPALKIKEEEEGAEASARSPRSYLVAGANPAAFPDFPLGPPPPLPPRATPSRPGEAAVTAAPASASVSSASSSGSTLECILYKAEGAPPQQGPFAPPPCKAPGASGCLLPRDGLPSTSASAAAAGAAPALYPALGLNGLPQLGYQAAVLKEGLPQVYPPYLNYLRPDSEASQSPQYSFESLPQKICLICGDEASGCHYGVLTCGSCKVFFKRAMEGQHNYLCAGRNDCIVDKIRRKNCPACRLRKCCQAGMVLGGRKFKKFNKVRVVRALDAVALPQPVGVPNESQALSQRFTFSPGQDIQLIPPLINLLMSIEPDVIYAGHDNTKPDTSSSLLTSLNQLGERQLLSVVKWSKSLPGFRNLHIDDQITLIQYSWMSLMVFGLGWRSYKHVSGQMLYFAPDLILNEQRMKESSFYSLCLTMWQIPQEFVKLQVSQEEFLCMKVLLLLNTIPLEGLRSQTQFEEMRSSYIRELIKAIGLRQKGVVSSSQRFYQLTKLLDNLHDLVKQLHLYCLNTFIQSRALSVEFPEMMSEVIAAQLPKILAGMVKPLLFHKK
Chain of UniProt P08684 (P08684 whole entry, looked up): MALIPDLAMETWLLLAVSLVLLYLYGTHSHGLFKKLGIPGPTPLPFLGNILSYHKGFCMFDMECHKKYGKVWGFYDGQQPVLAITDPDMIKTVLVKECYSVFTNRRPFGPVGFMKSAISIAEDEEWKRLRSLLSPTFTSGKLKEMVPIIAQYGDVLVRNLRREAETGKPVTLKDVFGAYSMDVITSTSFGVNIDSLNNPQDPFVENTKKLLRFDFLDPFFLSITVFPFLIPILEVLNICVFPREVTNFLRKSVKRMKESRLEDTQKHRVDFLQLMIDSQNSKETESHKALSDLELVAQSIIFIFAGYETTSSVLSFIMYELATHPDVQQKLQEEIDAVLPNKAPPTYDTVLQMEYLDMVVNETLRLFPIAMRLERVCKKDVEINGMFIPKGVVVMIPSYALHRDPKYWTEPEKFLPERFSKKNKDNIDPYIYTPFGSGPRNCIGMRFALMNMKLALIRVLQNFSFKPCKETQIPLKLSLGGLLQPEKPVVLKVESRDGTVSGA
Chain of UniProt P08659 (P08659 whole entry, looked up): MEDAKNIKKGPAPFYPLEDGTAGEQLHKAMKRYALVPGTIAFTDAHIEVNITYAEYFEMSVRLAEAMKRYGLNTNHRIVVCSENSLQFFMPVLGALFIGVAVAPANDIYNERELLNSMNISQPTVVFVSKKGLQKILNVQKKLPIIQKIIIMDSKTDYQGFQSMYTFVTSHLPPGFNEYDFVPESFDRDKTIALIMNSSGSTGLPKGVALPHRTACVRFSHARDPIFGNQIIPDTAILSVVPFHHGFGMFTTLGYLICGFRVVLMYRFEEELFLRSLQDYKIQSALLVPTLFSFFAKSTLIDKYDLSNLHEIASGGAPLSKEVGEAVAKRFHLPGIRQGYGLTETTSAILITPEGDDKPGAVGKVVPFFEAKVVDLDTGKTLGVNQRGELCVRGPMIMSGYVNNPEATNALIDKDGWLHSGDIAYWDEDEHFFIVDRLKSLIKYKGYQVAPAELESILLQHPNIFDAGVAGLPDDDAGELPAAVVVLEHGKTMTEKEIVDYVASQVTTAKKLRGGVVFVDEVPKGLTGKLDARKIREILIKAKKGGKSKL
Chain of UniProt P22303 (P22303 whole entry, looked up): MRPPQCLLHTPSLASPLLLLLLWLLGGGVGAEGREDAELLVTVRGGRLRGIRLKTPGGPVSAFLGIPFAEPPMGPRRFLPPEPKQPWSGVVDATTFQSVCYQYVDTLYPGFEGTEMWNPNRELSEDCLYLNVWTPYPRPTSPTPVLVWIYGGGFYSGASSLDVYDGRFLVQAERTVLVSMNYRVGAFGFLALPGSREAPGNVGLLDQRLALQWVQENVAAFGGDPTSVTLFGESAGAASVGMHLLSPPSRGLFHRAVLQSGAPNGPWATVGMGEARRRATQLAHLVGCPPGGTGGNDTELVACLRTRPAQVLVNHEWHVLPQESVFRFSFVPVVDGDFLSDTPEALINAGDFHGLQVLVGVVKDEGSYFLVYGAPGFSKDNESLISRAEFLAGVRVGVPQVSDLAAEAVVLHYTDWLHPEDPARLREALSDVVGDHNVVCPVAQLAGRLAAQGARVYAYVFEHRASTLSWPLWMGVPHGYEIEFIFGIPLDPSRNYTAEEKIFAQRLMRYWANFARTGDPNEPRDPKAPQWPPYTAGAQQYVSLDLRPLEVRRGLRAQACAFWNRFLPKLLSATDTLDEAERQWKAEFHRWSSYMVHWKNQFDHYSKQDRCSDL

## ClC(Cl)(Cl)c1ccccc1
[1]; [21]
  activation: inconclusive: 7.92% [phenotype inactive]
[1]; at 70.3 µM (top of the series)
  activation: inactive: 2.24%
[2]
  Potency: inactive

## CC1CN1P(=O)(N1CC1C)N1CC1C (stereo not drawn)
[3]
  Potency: inactive

## CC(C)O.CC(C)O.OCCN(CCO)CCO.OCCN(CCO)CCO.[Ti]
[4]
  Potency: inactive

## Cc1cc(Cl)ccc1O
[5]
  Potency: inactive
[6]
  Potency: inconclusive: 23.8 µM [cytotoxic, partial curve, poor fit]

## CCCCOC(=O)[C@@H](C)Oc1ccc(Oc2ccc(C#N)cc2F)cc1
[6]
  Potency: active: 12.2 µM

## CC(Cl)CN(C)C (stereo not drawn)
[2]
  Potency: inconclusive: 61.6 µM [activator, single point]
[7]
  Potency: inconclusive: 61.6 µM [activator, single point]
[8]
  Potency: inconclusive: 54.9 µM [activator, single point]
[6]
  Potency: inconclusive: 54.9 µM [rising, single point]

## CCOC(=O)CCl
[9]
  Potency: inactive
[10]
  Potency: inactive

## Nc1c(Oc2ccccc2)cc(O)c2c1C(=O)c1ccccc1C2=O
[11]
  Potency: inconclusive: 29.8 µM [cytotoxic, single point]
[12]
  Potency: active: 3.09 µM

## CN1CCC(N(Cc2ccccc2)c2ccccc2)CC1
[12]
  Potency: inactive
[2]
  Potency: inactive
[13]
  Potency: inconclusive: 23.9 µM [activator, single point]

## CC(C)COC(=O)c1ccccc1C(=O)OCC(C)C
[1]; [21]
  Potency: active: 21.7 µM and inconclusive: 13.7 µM [inhibitor, single point]
[13]
  Potency: inconclusive: 61.6 µM [activator, partial curve, poor fit]
[8]
  Potency: inactive
[14]
  Potency: inconclusive: 34.7 µM [inhibitor, partial curve, poor fit] and inconclusive: 43.6 µM [inhibitor, partial curve]

## NNCCO
[1]; [21]
  Potency: inconclusive: 48.6 µM [activator, partial curve, poor fit]
[5]
  Potency: inactive

## CCCCc1ccc(O)cc1
[12]
  Potency: inactive
[2]
  Potency: inconclusive: 61.6 µM [activator, single point]
[15]
  Potency: active: 21.8 µM
[8]
  Potency: inactive
[6]
  Potency: inconclusive: 21.8 µM [cytotoxic, partial curve]
[9]
  Potency: inactive

## COc1cc(Cl)c(OC)cc1Cl
[1]; [21]
  Potency: inactive
[11]
  Potency: inactive
[15]
  Potency: inactive
[16]
  Potency: active: 15.9 µM

## COC(=O)C1=CCCN(C)C1
[15]
  Potency: inconclusive: 4.77 µM [activator, partial curve]
[17]
  Potency: inconclusive: 4.77 µM [activator, partial curve]

## Brc1ccc(Br)cc1
[6]
  Potency: inactive

## CCC(=O)C(CCN(C)C)(c1ccccc1)c1ccccc1
[11]
  Potency: inactive
[14]
  Potency: inconclusive: 15.1 µM [inhibitor, partial curve, poor fit]

## CCOC(=O)N(C)C(=O)CSP(=S)(OCC)OCC
[8]
  Potency: inconclusive: 54.9 µM [activator, single point]
[18]
  Potency: inconclusive: 56.4 µM [inhibitor, partial curve]
[14]
  Potency: inactive
[16]
  Potency: active: 2.24 µM

## N[C@@H](Cc1ccc(Oc2cc(I)c(O)c(I)c2)c(I)c1)C(=O)O
[19]
  Potency: inactive
[12]
  Potency: inactive

## CCCOc1nn(C(=O)NS(=O)(=O)c2ccccc2C(=O)OC)c(=O)n1C
[16]
  Potency: inactive

## c1ccc(C2CO2)cc1 (stereo not drawn)
[2]
  Potency: inconclusive: 21.9 µM [activator, single point]
[8]
  Potency: inconclusive: 493 nM [activator, single point] and inconclusive: 19.5 µM [activator, single point]

## CCNc1nc(Cl)nc(NC(C)C)n1
[17]
  Potency: inactive
[18]
  Potency: inactive

## O=C(O)C(F)(F)C(F)(F)C(F)(F)C(F)(F)C(F)(F)C(F)(F)F
[20]
  Potency: inactive
[12]
  Potency: inconclusive: 89.4 µM [inhibitor, single point]
[13]
  Potency: inactive
[9]
  activation: inconclusive: 0.0138%
[18]
  Potency: inconclusive: 89.4 µM [inhibitor, single point]
[10]
  Potency: inactive

## Cc1ccc(S(=O)(=O)N[C@@H](CCCCN)C(=O)CCl)cc1
[1]; [21]
  Potency: inconclusive: 26.6 µM [inhibitor, partial curve]
[3]
  Potency: inconclusive: 13.3 µM [cytotoxic, partial curve, poor fit]
[19]
  Potency: inactive
[11]
  Potency: inactive
[5]
  Potency: inactive
[10]
  Potency: inconclusive: 38.9 µM [inhibitor, partial curve]

## COc1cnc(OC)n2nc(NS(=O)(=O)c3c(OCC(F)F)cccc3C(F)(F)F)nc12
[16]
  Potency: inconclusive: 20 µM [inhibitor, full curve, poor fit]

## CC(Cc1ccc(O)cc1)NCC(O)c1cc(O)cc(O)c1 (stereo not drawn)
[1]; [21]
  activation: inconclusive: 35.9% [activator]
[4]
  Potency: inactive

## CNC(=O)O/N=C/C(C)(C)S(C)(=O)=O
[2]
  Potency: inactive
[9]
  Potency: inactive
